{
  "source": "PubChem BioAssay AID504706",
  "about": "(National Center for Advancing Translational Sciences (NCATS), 2011)",
  "note": "In all, about 320,000 compounds went through this assay and about 200 (0.062%) were called active. Inconclusive results, whose numbers are uncertain, are shown with a selection of clear calls. The call rests on the fitted dose curve; in most records, active means well fitted activation curve with a large enough effect; inconclusive means small, poorly fitted or top-dose-only effect; inactive means no such curve, though single readings can be large or run the other way. No potency is given beside an inconclusive call; the fits are too rough. Potency means the concentration at half of the fitted maximal effect; tags describe the fitted curve by direction and shape.",
  "data": [
    {"test": "qHTS assay for re-activators of p53 using a Luc reporter; further: nearly all actives have a fitted effect of over 45% in size; on activity change, positive = activation: % of control where 0% means no effect", "conditions": "H1299 p53-A138V BP100-luciferase reporter, luminescence, 24 h; series mostly up to 92.2 µM; activity change, positive = activation: at the top concentration", "how_it_was_run": "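H1299 (p53-null), stable ts p53-A138V + BP100-Luc; 1000 cells/well, Opti-MEM/10% FBS; cpd 4 pt, 1:5; 24 h, 37 deg C, 5% CO2; detection reagent 10 min RT; luminescence.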", "values": [
      {"smiles": "O=C(/C=C/c1ccccc1Cl)NC(=S)Nc1ccccc1C(=O)NC1CCCCC1", "activity change, positive = activation": "inactive: 2.53%"},
      {"smiles": "O=C(c1ccco1)N1N=C(C2CCCCC2)CC1(O)C(F)(F)F", "note": "(centres undefined)", "activity change, positive = activation": "inactive: 2.3%"},
      {"smiles": "COc1ccc(-c2noc(-c3cccc(OC)c3OC)n2)cc1OC", "Potency": "inconclusive [activator, partial curve, poor fit]"},
      {"smiles": "CN(C)CCCN1C(=O)c2cccc3c(Br)ccc(c23)C1=O", "activity change, positive = activation": "inactive: 7.51%"},
      {"smiles": "O=C(Cc1ccccc1)Nc1ccc(N2CCCCC2)cc1", "activity change, positive = activation": "inactive: 20.1%"},
      {"smiles": "O=C(O)c1cccc(NC(=O)C2C3C=CC(C3)C2C(=O)OCC(F)(F)C(F)F)c1", "note": "(centres undefined)", "activity change, positive = activation": "inactive: 12.7%"},
      {"smiles": "CCOC(=O)c1ccccc1NC1c2ccccc2C(=O)N1c1ccc(C)cn1", "note": "(centres undefined)", "Potency": "inconclusive [activator, full curve, poor fit]"},
      {"smiles": "CC(=O)c1ccc(OCC(O)CN2CCN(S(=O)(=O)c3c(C)cc(C)cc3C)CC2)cc1", "note": "(centres undefined)", "activity change, positive = activation": "inactive: 4.31%"},
      {"smiles": "Cc1ccc(-n2[nH]c(C)c(/C=N/NC(=O)c3cccc([N+](=O)[O-])c3)c2=O)cc1C", "Potency": "inconclusive [activator, partial curve, poor fit]"},
      {"smiles": "C(=N\\N=C\\c1cccs1)/c1cccs1", "Potency": "inconclusive [activator, partial curve, poor fit]"},
      {"smiles": "COc1ccc(C(c2c(O)ccc3ccccc23)N2CCOCC2)c(OC)c1", "note": "(centres undefined)", "activity change, positive = activation": "inactive: -15.2%"},
      {"smiles": "CCOC(=O)N1CCN(C(=O)c2ccc3nc(N4CCCCC4)sc3c2)CC1", "activity change, positive = activation": "inactive: -0.711%"},
      {"smiles": "Cc1ccc(NC(=O)C2CCCN(c3ncccn3)C2)cc1F", "note": "(centres undefined)", "Potency": "inconclusive [activator, full curve, poor fit]"},
      {"smiles": "CCc1nc2c(c(=O)c3ccccc3n2C)c(=O)n1CCc1ccc(OC)cc1", "Potency": "inconclusive [activator, single point]"},
      {"smiles": "Cc1ccc(S(=O)(=O)Oc2ccc(/C=N/N=C3/NC(=O)C(CC(=O)O)S3)cc2)cc1[N+](=O)[O-]", "note": "(centres undefined)", "Potency": "inconclusive [activator, single point]"},
      {"smiles": "CCOC(=O)CSc1nnc(CNC(=O)c2ccc(S(=O)(=O)N3CCCCC3)cc2)n1C", "Potency": "inconclusive [activator, single point]"},
      {"smiles": "Cc1ccc(NC(=O)CSC(C)c2nc3ccccc3c(=O)[nH]2)cc1", "note": "(centres undefined)", "activity change, positive = activation": "inactive: 1.88%"},
      {"smiles": "CCOC(=O)c1ccc(Nc2nc(-c3cccnc3)nc3ccccc23)cc1", "activity change, positive = activation": "inactive: -9.95%"},
      {"smiles": "Nc1c(C(=O)Nc2ccccc2F)sc2nc(-c3ccco3)ccc12", "Potency": "inconclusive [activator, single point]"},
      {"smiles": "O=[N+]([O-])c1ccc(O)c(/C=N/Nc2ccc(Cl)nn2)c1", "Potency": "inconclusive [activator, partial curve, poor fit]"},
      {"smiles": "Cc1ncoc1C(=O)Nc1cccc(Cl)c1", "Potency": "inconclusive [activator, partial curve, poor fit]"},
      {"smiles": "CCC(=O)Nc1ccc(NC(=S)NC(=O)/C=C/c2ccccc2)cc1", "activity change, positive = activation": "inactive: -2.88%"},
      {"smiles": "COc1ccc(Nc2nnc(SCC(=O)c3cc(C)n(CC4CCCO4)c3C)s2)cc1", "note": "(centres undefined)", "activity change, positive = activation": "inactive: 24.2%"},
      {"smiles": "CN(C)CCN(C(=O)c1ccco1)c1nc2cc3c(cc2s1)OCCO3", "Potency": "inconclusive [activator, partial curve, poor fit]"},
      {"smiles": "O=[N+]([O-])c1ccc(CSc2nnc3ccccn23)cc1", "activity change, positive = activation": "inactive: 5.34%"},
      {"smiles": "O=C(Nc1ccc(-c2cn3ccsc3n2)cc1)C1CCCC1", "Potency": "inconclusive [activator, partial curve, poor fit]"},
      {"smiles": "CC(C)c1ccc(NC(=O)CSc2ncccc2C(=O)Oc2cccc([N+](=O)[O-])c2)cc1", "Potency": "inconclusive [activator, partial curve, poor fit]"},
      {"smiles": "CC(C)CNC(=O)C(=O)Nc1ccc(N(C)C)cc1", "Potency": "inconclusive [activator, full curve, poor fit]"},
      {"smiles": "Cc1cc(C)n(-c2nc3ccccc3c(=O)n2OCC#N)n1", "Potency": "inconclusive [activator, partial curve, poor fit]"},
      {"smiles": "O=C(/C=C/c1ccco1)Nc1ccc(N2CCCC2)cc1", "Potency": "inconclusive [activator, partial curve, poor fit]"},
      {"smiles": "COc1ccc(/C=N/Nc2nc3ccccc3o2)cc1OC", "Potency": "inconclusive [activator, partial curve, poor fit]"},
      {"smiles": "C=CCNc1nc(N)c(C(=O)Nc2cc(C)on2)s1", "Potency": "inconclusive [activator, partial curve, poor fit]"},
      {"smiles": "CCCS(=O)(=O)N1CCCC(C(=O)NC2CCCCC2)C1", "note": "(centres undefined)", "Potency": "inconclusive [activator, single point]"},
      {"smiles": "C=CCn1c(C)cc(C(=O)COC(=O)[C@@H](NC(=O)c2ccccc2Cl)C(C)C)c1C", "activity change, positive = activation": "inactive: 8.66%"},
      {"smiles": "C/C(=N\\NC(=O)c1ccccc1C)c1ccc(NC(=O)c2cccs2)cc1", "Potency": "inconclusive [activator, partial curve, poor fit]"},
      {"smiles": "N#CCSc1ccc(-c2nc3ccccc3[nH]2)cn1", "activity change, positive = activation": "inactive: 9.32%"},
      {"smiles": "O=C(NC(=S)Nc1cccc([N+](=O)[O-])c1)C1CCCC1", "Potency": "inconclusive [activator, partial curve]"},
      {"smiles": "CC(=O)NC(CCS(C)(=O)=O)C(=O)Nc1cccc(C)c1C", "note": "(centres undefined)", "Potency": "inconclusive [activator, single point]"},
      {"smiles": "Cc1cc(NC(=O)COc2ccc3ccccc3c2Br)no1", "Potency": "inconclusive [activator, full curve, poor fit]"},
      {"smiles": "Cc1ccc(CN2C(=O)/C(=C3\\SC(N4CCOCC4)=NC3=O)c3cc(Br)ccc32)cc1", "Potency": "inconclusive [activator, partial curve, poor fit]"},
      {"smiles": "Cc1snc(SCC(=O)c2ccc(Cl)cc2)c1C#N", "Potency": "inconclusive [activator, partial curve, poor fit]"},
      {"smiles": "COc1ccc(N2CCCC2)c(NC(=O)c2ccc([N+](=O)[O-])o2)c1", "Potency": "inconclusive [activator, full curve, poor fit]"},
      {"smiles": "C#CCSc1nnc(-c2c[nH]c3ccccc23)n1C", "activity change, positive = activation": "inactive: 8.63%"},
      {"smiles": "CN(C)c1ccc(/C=N/NC(=O)c2ccccc2Cl)cc1", "Potency": "inconclusive [activator, full curve, poor fit]"}
    ]}
  ]
}
